Measured values taken from patent US10294303B2, “Method of treating or ameliorating metabolic disorders using binding proteins for gastric inhibitory peptide receptor (GIPR) in combination with GLP-1 agonists” (AMGEN INC., priority 2015, dated 2019).

B1: 18F2.011: anti-GIPR antibody, 18F2 family (antibody)
heavy: QVQLVESGGGVVQPGRSLRLSCAASGFTFSNFGMHWVRQAPGKGLEWVAVIWYDASNENYAD[about 20 residues not written out]MNSLRAEDTAVYYCARDRTIFGVVLGDYWGQGTLVTVSSASTKGPSVFPLAPSSKSTSGGTAALGCLVKDYFPEPVTVSWNSGALTSGVHTFPAVLQSSGLYSLSSVVTVPSSSLGTQTYICNVNHKPSNTKVDKKV[human IgG1 Fc with R292C N297G V302C (EU numbers) not written out]
light: DIQMTQSPSSLSASIGDRVTITCRASQDLRNYLGWYQQKPGKAPKLLIYGASSLQSGVPSRFSGSGSGTEFTLTISSLQPEDFATYYCLQHNNYPFTFGQGTKVDIKRTVAAPSVFIFPPSDEQLKSGTASVVCLLNNFYPREAKVQWKVDNALQSGNSQESVTEQDSKDSTYSLSSTLTLSKADYEKHKVYACEVTHQGLSSPVTKSFNRGEC
B2: 18F2.013: anti-GIPR antibody, 18F2 family (antibody)
heavy: QVQLVESGGGVVQPGRSLRLSCAASGFTFSNFGMHWVRQAPGKGLEWVAVIWYDASNENYAD[about 20 residues not written out]MNSLRAEDTAVYYCARDRTIFGVVLGDYWGQGTLVTVSSASTKGPSVFPLAPSSKSTSGGTAALGCLVKDYFPEPVTVSWNSGALTSGVHTFPAVLQSSGLYSLSSVVTVPSSSLGTQTYICNVNHKPSNTKVDKKV[human IgG1 Fc with R292C N297G V302C (EU numbers) not written out]
light: DIQMTQSPSSLSASIGDRVTITCRASQDLRNYLGWYQQKPGKAPKRLIYGASSLQSGVPSRFSGSGSGTEFTLTISSLQPEDFATYYCLQHNNYPFTFGQGTKVDIKRTVAAPSVFIFPPSDEQLKSGTASVVCLLNNFYPREAKVQWKVDNALQSGNSQESVTEQDSKDSTYSLSSTLTLSKADYEKHKVYACEVTHQGLSSPVTKSFNRGEC
B3: 2F11: anti-GIPR antibody, 2F11 family (antibody)
heavy: QVQLVESGGGVVQPGRSLRLSCAASGFTFSSYGMHWVRQAPGKGLEWVAVIWYDGSNKYYADSVKGRFTISSDNSKNTLYLQMNSLRAEDTAVYYCARDRTIFGVVLDYWGQGTLVTVSSASTKGPSVFPLAPSSKSTSGGTAALGCLVKDYFPEPVTVSWNSGALTSGVHTFPAVLQSSGLYSLSSVVTVPSSSLGTQTYICNVNHKPSNTKVDKKV[human IgG1 Fc with R292C N297G V302C (EU numbers) not written out]
light: DIQMTQSPSSLSASVGDRVTITCQASQDISNYLNWYQQKPGKAPKLLIYDASNLETGVPSRFSGSGSGTDFSFTISSLQPEDIATYYCQQYDILLTFGGGTKVEIKRTVAAPSVFIFPPSDEQLKSGTASVVCLLNNFYPREAKVQWKVDNALQSGNSQESVTEQDSKDSTYSLSSTLTLSKADYEKHKVYACEVTHQGLSSPVTKSFNRGEC
B4: 2A11.002: anti-GIPR antibody, 2A11 family (antibody)
heavy: QVQLVESGGGVVQPGRSLRLSCAASGFSFSSYGMHWVRQAPGKGLEWVAVIWYDASNKYYEDAVKGRFTISRDNSKNTLFLQVNSLRAEDTAVYYCARGITIFGHGFEYWGQGTLVTVSSASTKGPSVFPLAPSSKSTSGGTAALGCLVKDYFPEPVTVSWNSGALTSGVHTFPAVLQSSGLYSLSSVVTVPSSSLGTQTYICNVNHKPSNTKVDKKV[human IgG1 Fc with R292C N297G V302C (EU numbers) not written out]
light: EIVLTQSPGTLSLSPGERATLSCRASQIFTSTYLAWYQQKPGQAPRLLIYGASSRATGIPDRFSGSGSGTDFTLTISRLEPEDFAVYYCQQYGSSPRFGQGTRLEIKRTVAAPSVFIFPPSDEQLKSGTASVVCLLNNFYPREAKVQWKVDNALQSGNSQESVTEQDSKDSTYSLSSTLTLSKADYEKHKVYACEVTHQGLSSPVTKSFNRGEC
B5: 2A11.003: anti-GIPR antibody, 2A11 family (antibody)
heavy: QVQLVESGGGVVQPGRSLRLSCAASGFSFSSYGMHWVRQAPGKGLEWVAVIWYDGSNKYYEDSVKGRFTISRDNSKNTLFLQVNSLRAEDTAVYYCARGITIFGHGFEYWGQGTLVTVSSASTKGPSVFPLAPSSKSTSGGTAALGCLVKDYFPEPVTVSWNSGALTSGVHTFPAVLQSSGLYSLSSVVTVPSSSLGTQTYICNVNHKPSNTKVDKKV[human IgG1 Fc with R292C N297G V302C (EU numbers) not written out]
light: EIVLTQSPGTLSLSPGERATLSCRASQIFTSTYLAWYQQKPGQAPRLLIYGASSRATGIPDRFSGSGSGTDFTLTISRLEPEDFAVYYCQQYGSSPRFGQGTRLEIKRTVAAPSVFIFPPSDEQLKSGTASVVCLLNNFYPREAKVQWKVDNALQSGNSQESVTEQDSKDSTYSLSSTLTLSKADYEKHKVYACEVTHQGLSSPVTKSFNRGEC
B6: 2A11.004: anti-GIPR antibody, 2A11 family (antibody)
heavy: QVQLVESGGGVVQPGRSLRLSCAASGFSFSSYGMHWVRQAPGKGLEWVAVIWYDGSNKYYEDAVKGRFTISRDNSKNTLFLQVNSLRAEDTAVYYCARGITIFGHGFEYWGQGTLVTVSSASTKGPSVFPLAPSSKSTSGGTAALGCLVKDYFPEPVTVSWNSGALTSGVHTFPAVLQSSGLYSLSSVVTVPSSSLGTQTYICNVNHKPSNTKVDKKV[human IgG1 Fc with R292C N297G V302C (EU numbers) not written out]
light: EIVLTQSPGTLSLSPGERATLSCRASQIFTSTYLAWYQQKPGQAPRLLIYGASSRATGIPDRFSGSGSGTDFTLTISRLEPEDFAVYYCQQYGSSPRFGQGTRLEIKRTVAAPSVFIFPPSDEQLKSGTASVVCLLNNFYPREAKVQWKVDNALQSGNSQESVTEQDSKDSTYSLSSTLTLSKADYEKHKVYACEVTHQGLSSPVTKSFNRGEC
B7: 2A11.005: anti-GIPR antibody, 2A11 family (antibody)
heavy: QVQLVESGGGVVQPGRSLRLSCAASGFSFSSYGMHWVRQAPGKGLEWVAVIWYDASNKYYEDSVKGRFTISRDNSKNTLFLQVNSLRAEDTAVYYCARGITIFGHGFEYWGQGTLVTVSSASTKGPSVFPLAPSSKSTSGGTAALGCLVKDYFPEPVTVSWNSGALTSGVHTFPAVLQSSGLYSLSSVVTVPSSSLGTQTYICNVNHKPSNTKVDKKV[human IgG1 Fc with R292C N297G V302C (EU numbers) not written out]
light: EIVLTQSPGTLSLSPGERATLSCRASQIFTSTYLAWYQQKPGQAPRLLIYGASSRATGIPDRFSGSGSGTDFTLTISRLEPEDFAVYYCQQYGSSPRFGQGTRLEIKRTVAAPSVFIFPPSDEQLKSGTASVVCLLNNFYPREAKVQWKVDNALQSGNSQESVTEQDSKDSTYSLSSTLTLSKADYEKHKVYACEVTHQGLSSPVTKSFNRGEC

target: T1, Rhesus GIPR (Macaca mulatta, UniProt F7E1R9); test: Rhesus GIPR cAMP assay; type: cell-based
T1 construct: expressed in transfected cells
T1 sequence (F7E1R9 26-466): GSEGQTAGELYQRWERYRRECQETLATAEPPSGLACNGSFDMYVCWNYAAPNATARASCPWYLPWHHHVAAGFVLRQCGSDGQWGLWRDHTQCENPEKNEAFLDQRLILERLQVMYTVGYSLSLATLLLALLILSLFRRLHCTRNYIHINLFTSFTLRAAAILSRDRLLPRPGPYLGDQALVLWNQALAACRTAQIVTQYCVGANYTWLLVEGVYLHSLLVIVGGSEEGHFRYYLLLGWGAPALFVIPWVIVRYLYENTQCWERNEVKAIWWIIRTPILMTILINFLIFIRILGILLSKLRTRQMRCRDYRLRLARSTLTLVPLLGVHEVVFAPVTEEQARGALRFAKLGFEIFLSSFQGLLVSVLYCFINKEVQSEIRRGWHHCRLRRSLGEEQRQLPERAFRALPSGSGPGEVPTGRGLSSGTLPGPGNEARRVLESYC
Protocol: A cyclic AMP assay (no. 62AM4PEC CISBIO) was used to determine the potency of anti-GIPR antibodies. 293T cells were grown in suspension and transiently transfected with human GIPR using Lipofectamine 2000 (no. 11668027 Life Technologies). 24 hrs after transfection, antibody was titrated from high to low concentration in black 384 well plates (no. 3712 Corning Life Sciences) with a final volume of 10 uls/well in assay buffer (DMEM no. D5671 Sigma supplemented with 15 mM HEPES and 0.1% Bovine Serum Albumin). GIPR transfected cells were then added to the assay plate at 10,000 cells per well (10 uls/well) in the presence of 1:40 cAMP-d2 (CISBIO kit component). Assay plates were allowed to incubate for 30 minutes at 37′ C., 5% CO2. […] Plates were then incubated at 37° C., 5% CO2 for 30 minutes. Anti-cAMP-Eu3+-Cryptate (CISBIO kit component) was prepared at 1:40 in conjugate and lysis buffer (CISBIO kit component) and 15 uls/well of this solution was added to the assay plates and allowed to incubate for 1 hour at room temperature. Homogeneous time-resolved fluorescence was then collected on a Tecan Genios Pro multimode microplate reader using an excitation wavelength of 320 nm, a lag time of 150 is and an integration time of 50 us. […] Collected data was then reported as a FRET ratio of A665/A620 multiplied by a factor of 10000 as per CISBIO kit insert instructions. Percent inhibition of hGIP binding to transiently expressed GIPR was calculated by subtracting FRET ratio of cells plus hGIP (f1) from FRET ratio of cells plus antibody plus hGIP (f2) divided by FRET ratio of cells plus hGIP (f1) subtracted from FRET ratio of cells alone (f3) multiplied by 100: % Inhibition=[(f2−f1)/(f3−f1)]×100.

Rhesus GIPR cAMP Assay (Conc. mAb @ 60% Inhibition in nM), >[Ab] Tested:
B1
B2
B3
B4
B5
B6
B7
